PMC4567410 (Virology, 2015)

Target: Vif-A3G interaction (Human immunodeficiency virus type 1 group M subtype B, UniProt P12504)
Conditions: 293T cells, 1250 nM, 40 h, co-immunoprecipitation

UniProt P12504, sequence (P12504 whole entry): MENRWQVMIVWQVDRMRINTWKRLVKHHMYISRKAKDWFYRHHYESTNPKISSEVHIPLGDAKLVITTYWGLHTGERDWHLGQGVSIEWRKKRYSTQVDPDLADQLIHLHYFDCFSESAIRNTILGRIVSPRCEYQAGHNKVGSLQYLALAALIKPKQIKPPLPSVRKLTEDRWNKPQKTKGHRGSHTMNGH

## COc1cc(-c2ccc(Nc3ccccc3C(=O)O)c(OC)c2)ccc1Nc1ccccc1C(=O)O [redoxal]
  effect on Vif-A3G interaction in cells: did not reveal any significant effect
